The whole screen tested about 310,000 compounds, of which about 18,000 (5.8%) were called active. Inconclusive means that the source gave no clear call. Such entries were picked first, then a sample of the others. Calls come from the whole dose curve; as a rule, active = well fitted inhibition curve with a large enough effect; inconclusive = small, poorly fitted or top-dose-only effect, or another doubt; inactive = no such curve, though single readings can be large or run the other way. No potency is given beside an inconclusive call; the fits are too rough.
test: Primary qHTS for delayed death inhibitors of the malarial parasite plastid, 48 hour incubation; details: P. falciparum luciferase growth in erythrocytes; series mostly up to 28.7 µM; activity change, negative = inhibition: at the top concentration
How it was run: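 A one-generation exposure of luciferase-tagged malaria parasites in RPMI 1640/Albumax erythrocyte culture, 37 C and 5% CO2. Inhibition is inferred from decreased luminescence after adding detection reagent.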
% is set by controls: 0 for no effect and ±100 for the full control effect; potency is the fitted concentration of half-maximal effect; tags give direction and shape of the fitted curve.

Structure (SMILES) | Potency | activity change, negative = inhibition
COc1ccc(C(=O)N(C)C2CCCCC2)cc1S(=O)(=O)N1CCOCC1 | inconclusive [inhibitor, single point] | 
COc1ccccc1NC(=O)c1nn(C)c(C(=O)Nc2ccccc2OC)c1[N+](=O)[O-] |  | inactive: -12.5%
Cc1cccc(NC(=O)C[n+]2ccccc2)c1 |  | inactive: 52%
c1ccc(Oc2nc(Oc3ccccc3)nc(N3CCOCC3)n2)cc1 | inconclusive [inhibitor, single point] | 
O=[N+]([O-])c1ccc(NNC(=S)Nc2ccccc2)cc1 |  | inactive: -56.3%
CCc1nnc(NC(=O)CN2C(=O)NC3(CC(C)CC(C)(C)C3)C2=O)s1 (stereo unspecified) | inconclusive [inhibitor, single point] | 
CCCCN(CCCC)c1nc(-c2ccncc2)nc2ccccc12 | inconclusive [inhibitor, full curve] | 
COc1c(Cl)cnn(-c2ccc(Cl)c(Cl)c2)c1=O | inconclusive [inhibitor, partial curve, poor fit] | 
O=C(CSc1cn(CC(=O)N2CCCCCC2)c2ccccc12)NCC1CCCO1 (stereo unspecified) |  | inactive: -17.7%
COc1ccc(NC(=O)CSc2nc3ccccc3nc2N2CCCC2)c(OC)c1 | inconclusive [inhibitor, partial curve, poor fit] | 
CCOC(=O)N1CCN(C(=O)C2CCN(c3ncnc4c3sc3cccc(F)c34)CC2)CC1 | inconclusive [inhibitor, partial curve, poor fit] | 
COc1ccc(-c2nnc(SCC(=O)Oc3ccc(C)cc3)o2)cc1 | inconclusive [inhibitor, partial curve] | 
COc1ccc(-c2ccc(Nc3ccc(C(=O)N4CCOCC4)cc3)nn2)cc1OC | inconclusive [inhibitor, single point] | 
COC(=O)c1sc(N2CCCCC2)c(C#N)c1N |  | inactive: 31.8%
Cc1ccc(-n2c(C)cc(/C=N/NC(=O)Cn3c4ccccc4c(=O)c4ccccc43)c2C)cc1 | inconclusive [inhibitor, single point] | 
O=C(COc1ccc(S(=O)(=O)N2CCCC2)cc1[N+](=O)[O-])N1CCCC1 | inconclusive [inhibitor, single point] | 
CCOC(=O)N1CCc2c(sc3c2c(=O)n(Cc2ccccc2)c(=O)n3Cc2cccc(C)c2)C1 | inconclusive [inhibitor, full curve] | 
CC1(C)Cc2ccccc2C(c2cc3ccccc3oc2=O)=N1 | active: 8.28 µM | 
CCOc1ccc(NS(=O)(=O)c2cc(C(=O)N3CC(C)OC(C)C3)ccc2C)cc1 (stereo unspecified) | inconclusive [inhibitor, single point] | 
CC1c2[nH]c3ccccc3c2C[C@H]2C(=O)N(CCCN(C)C)CC(=O)N12 (stereo partly specified) |  | inactive: 10.3%
CCCOc1ccccc1N1C(=O)CC(N2CCOCC2)C1=O (stereo unspecified) | inconclusive [inhibitor, full curve, poor fit] | 
CCN1CCN(C(=O)CCN2C(=O)COc3ccc(C)cc32)CC1 |  | inactive: 11.7%
COc1ccc(Cl)cc1C(=O)NCc1ccco1 | inconclusive [inhibitor, partial curve, poor fit] | 
CCOC(=O)/C=C/[C@H]1CC(c2ccccc2)(c2ccccc2)CO1 | inconclusive [inhibitor, partial curve, poor fit] | 

Structure (SMILES) | Potency | activity change, negative = inhibition
CCC1(C)NC(=O)N(/N=C/c2ccc(C)s2)C1=O (stereo unspecified) |  | inactive: 50.8%
COc1cccc(OC(=O)c2cc3ccccc3oc2=O)c1 |  | inactive: -2.27%
CCO[C@@H]1OC(C(=O)N2CCN(Cc3ccc4c(c3)OCO4)CC2)=C[C@H](c2cn(C(C)=O)c3ccccc23)[C@H]1CCCO | active: 1.31 µM | 
Cc1ccc(NC(=O)c2cc(N3CCOCC3)nc3ccccc23)cc1 | inconclusive [inhibitor, single point] | 
CCN(CC)c1ccc(C2N(C(=O)N3CCOCC3)CCN2S(=O)(=O)c2ccc(C)cc2)cc1 (stereo unspecified) | inconclusive [inhibitor, single point] | 
N/C(=N\OC(=O)CC1CCCCC1)c1ccncc1 |  | inactive: 16.8%
CN1CCN(c2ccc([N+](=O)[O-])c(N/N=C3\CN4CCC3CC4)c2)CC1 | inconclusive [inhibitor, partial curve, poor fit] | 
COCCN1C=C(C(=O)OC)C(c2ccc(OC)c(OC)c2)C(C(=O)OC)=C1 |  | inactive: -8.57%
CSc1cc(/C=N/O)c(SC)s1 |  | inactive: -3.95%
O=C(Cc1noc2ccccc12)Nc1ccccn1 |  | inactive: 119%
COc1ccc(Cl)cc1NC(=O)CC(=O)Nc1cc(Cl)ccc1OC | inconclusive [inhibitor, single point] | 
N#C/C(=C/c1ccncc1)c1nc2ccccc2c(=O)[nH]1 | inconclusive [inhibitor, single point] | 
COc1ccccc1C(=O)NCCNC(=O)c1ccco1 | inconclusive [inhibitor, partial curve] | 
COc1cc(NC(=O)CN(C)S(=O)(=O)c2ccc(-c3ccc(=O)[nH]n3)s2)cc(OC)c1 | inconclusive [inhibitor, single point] | 
Cc1ccc(-n2nc(C)c3c(C)c(CCC(=O)NCC4CCCO4)c(=O)n(C)c32)cc1 (stereo unspecified) | inconclusive [inhibitor, partial curve, poor fit] | 
COc1ccc(CCNC(=O)c2cc(Cl)nc3ccccc23)cc1 | inconclusive [inhibitor, partial curve, poor fit] | 
COc1ccc(CNC(=O)C(C)NS(=O)(=O)c2ccc(C)cc2)cc1 (stereo unspecified) |  | inactive: 12.8%
CCOC(=O)c1ccc(NC(=O)c2ccc(CN3CCOCC3)cc2)cc1 | inconclusive [inhibitor, single point] | 
C=CCN(C(=O)c1cccc(C(F)(F)F)c1)C1(C(=O)Nc2ccccc2)CCN(C(C)C)CC1 | inconclusive [inhibitor, full curve, poor fit] | 
CCOc1cc(-c2sc(Nc3ccccc3)n[n+]2C)ccc1OC | inconclusive [inhibitor, partial curve] | 
CCc1nc(SCc2cccnc2)[nH]c(=O)c1C |  | inactive: 22.5%
O=C(c1ccc2nc(N3CCCCC3)sc2c1)N1CCN(Cc2ccc3c(c2)OCO3)CC1 | active: 4.15 µM | 
COc1ccc(NS(=O)(=O)c2cccc(C(=O)NCC3CCCO3)c2)cc1 (stereo unspecified) | inconclusive [inhibitor, single point] | 
FC(F)(F)c1cccc(Cc2noc(CN3CCCC3)n2)c1 |  | inactive: 18.1%

Structure (SMILES) | Potency | activity change, negative = inhibition
CCN(CC)CCNS(=O)(=O)c1ccc2c3c(cccc13)C(=O)N2 |  | inactive: 4.42%
CC(=O)C1=C(O)C(=O)N(c2ccc(Br)cn2)C1c1ccccc1F (stereo unspecified) |  | inactive: 22.6%
C=CCOc1ccccc1CN1CCSCC1 |  | inactive: 8.87%
Fc1ccc(Nc2nc(Oc3ccccc3F)nc(N3CCCC3)n2)cc1 | active: 1.47 µM | 
CCOc1ccc(/C=N/N2C(C)CCCC2C)cc1 (stereo unspecified) |  | inactive: -9.72%
C#Cc1ccc([C@@H]2C=C(C(=O)NCc3ccccc3)O[C@H](OCc3ccc(CO)cc3)C2)cc1 | inconclusive [inhibitor, full curve] | 
CC(C)(C)NC[C@H](O)CSc1nc(-c2ccc(C(N)=O)s2)cs1 | inconclusive [inhibitor, partial curve] | 
Cc1cc(C)c(NC(=O)C2CCCN(S(=O)(=O)c3c(C)noc3/C=C/N(C)C)C2)c(C)c1 (stereo unspecified) | inconclusive [inhibitor, single point] | 
Oc1ccc(/C=N/Nc2ncc(Br)cn2)c(O)c1 | inconclusive [inhibitor, single point] | 
Cc1cc(C)c(C)c(OCCCCN(C)Cc2ccccc2)c1 | inconclusive [inhibitor, partial curve, poor fit] | 
O=C(O)CCCCCNC(=O)OCC1c2ccccc2-c2ccccc21 |  | inactive: -13%
CCc1ccc2[nH]cc(C(=O)OCCOC)c(=O)c2c1 | active: 1.47 µM | 
CC(C)CN1C=C2C(=O)C(C)(OC(=O)C3CCCC3)C(=O)C=C2C=C1c1ccsc1 (stereo unspecified) | inconclusive [inhibitor, partial curve] | 
COc1ccc(-n2ncc3c2CC(C)(C)CC3NC(=O)c2c(C)cc(=O)oc2C)cc1 (stereo unspecified) | inconclusive [inhibitor, partial curve, poor fit] | 
Cn1cccc1/C=N\NC(=O)Cc1ccc(Br)c2ccccc12 |  | inactive: -19.4%
Cc1cccc(C)c1NC(=O)C(=O)NCC1CCCN1S(=O)(=O)c1ccccc1 (stereo unspecified) | inconclusive [inhibitor, partial curve, poor fit] | 
CC(C)(C)OC(=O)N1CCC(NC(=O)c2nc[nH]c2C(=O)NC2CCN(C(=O)OC(C)(C)C)CC2)CC1 | active: 3.7 µM | 
CCOc1ccc(NC(=O)CN(C)C(=O)COc2cccc(CC)c2)cc1OCC | inconclusive [inhibitor, partial curve, poor fit] | 
C/C(=N\Nc1cc(C(F)(F)F)ccc1Cl)c1ccccc1O | inconclusive [inhibitor, single point] | 
O=C(CCNC(=O)Cn1ccc2ccccc2c1=O)NCCc1ccc(Cl)cc1 |  | inactive: 22.1%
COc1ccc(C(=O)c2c3ccc(OC)cc3[n+]([O-])n2Cc2ccc(C(N)=O)cc2)cc1 | inconclusive [inhibitor, single point] | 
COc1ccc(-c2ccnc3nc(Sc4ncc(C(F)(F)F)cc4Cl)nn23)cc1 | inconclusive [inhibitor, single point] | 
COc1ccc(CN2CCCCC2c2cccnc2)cc1C (stereo unspecified) | active: 13.1 µM | 

Source: PubChem BioAssay AID504832 (National Center for Advancing Translational Sciences (NCATS), 2011)
